Some of the results follow. The data describe in vitro nicking of single-stranded DNA by Rep domains (3 µM enzyme, 1 h, 37 °C); shown is the middle of each 90-letter strand. Values are log2 of uncut reads against the no-enzyme pool; strong cutting gives strongly negative numbers. There is no active / inactive call. The scaling is to total reads; values above 0 arise when much of the pool is cut.
These sequences were tested on T1, Rep nickase domain of tomato golden mosaic virus (assay: uncleaved DNA left, log2 of reads against the no-enzyme library (log2 ratio); higher = less cleavage (more negative = more Rep cleavage of the k-mer); sequences stand for … in CTCGTCCG…ACCGGAGA).
T1 sequence (Rep 1-124, printed without the tag): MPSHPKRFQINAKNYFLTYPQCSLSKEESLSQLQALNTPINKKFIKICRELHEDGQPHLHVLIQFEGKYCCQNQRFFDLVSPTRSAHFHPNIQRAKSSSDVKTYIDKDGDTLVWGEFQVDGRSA
Method: (§1)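 A pool of 90-nt single-stranded DNAs with seven random bases just before the constant AC of the nick site (name = the seven bases) was cut by 3 µM recombinant His6-SUMO-tagged Rep nickase domain (300 nM DNA, 50 mM HEPES pH 8.0, 50 mM NaCl, 1 mM MnCl2, 1 h, 37 °C, three replicates). Uncut DNA was amplified and sequenced.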

Sequence	uncleaved DNA left (log2)
CACCCTT	-0.294
CTTAGGC	0.00609
TGCTTCT	-0.236
GGAGTAC	-0.0467
GGGATCG	-0.028
TTCTGCT	-0.111
GATCATT	-0.297
CTGCCCT	-0.0133
CGACCGA	-0.0965
TGGACAC	-0.0271
ACCTGAG	0.147
TAGTGTC	0.0558
ACTTATT	-0.085
TGTGGTG	-0.0423
CTGAGAC	-0.213
GGTTGGA	0.167
CCCCTCT	-0.0838
AATCCGG	0.0672
AGGACGG	0.0317
TACGAAT	0.0896

Sequence	uncleaved DNA left (log2)
CTTCATG	-0.0583
ACCATCA	0.113
GACCCCT	-0.0302
AACATCT	0.126
GCGGATC	0.106
CTATACA	0.0168
ATAAGTG	0.00779
CTTAACA	0.0759
CAAAACC	0.118
GAAATTA	0.0416
GGGGGCT	-0.00906
CTTAATA	0.11
AAATGGC	0.066
TTCACAA	0.0148
TCCGCGG	0.0621
GATAAAC	-0.045
TAACCTT	-2.16
TTGCGAG	-0.0719
CTGTGGT	0.0357
GGTGCAG	-0.091

Each sequence was assayed on T2, Rep nickase domain of tomato yellow leaf curl virus in the same assay as above.
T2 sequence (Rep 1-136, printed without the tag): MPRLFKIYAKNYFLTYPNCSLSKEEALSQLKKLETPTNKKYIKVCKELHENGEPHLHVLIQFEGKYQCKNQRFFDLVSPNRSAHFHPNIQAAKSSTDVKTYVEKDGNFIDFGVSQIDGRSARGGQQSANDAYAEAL
Method: as §1

Sequence	uncleaved DNA left (log2)
CACCCTT	-0.0583
CTTAGGC	0.0219
TGCTTCT	-0.138
GGAGTAC	-0.00956
GGGATCG	-0.101
TTCTGCT	0.0115
GATCATT	0.0288
CTGCCCT	0.103
CGACCGA	0.0453
TGGACAC	0.0471
ACCTGAG	0.361
TAGTGTC	0.0534
ACTTATT	-0.125
TGTGGTG	0.0771
CTGAGAC	-0.154
GGTTGGA	0.289
CCCCTCT	-0.134
AATCCGG	-0.13
AGGACGG	-0.124
TACGAAT	-0.0735

Sequence	uncleaved DNA left (log2)
CTTCATG	-0.0211
ACCATCA	0.0792
GACCCCT	0.0144
AACATCT	0.038
GCGGATC	0.122
CTATACA	0.123
ATAAGTG	0.0687
CTTAACA	0.178
CAAAACC	-0.0275
GAAATTA	0.209
GGGGGCT	0.0256
CTTAATA	0.095
AAATGGC	0.107
TTCACAA	0.0815
TCCGCGG	-0.0602
GATAAAC	0.054
TAACCTT	-0.0915
TTGCGAG	0.0989
CTGTGGT	0.117
GGTGCAG	-0.123

Each sequence was assayed on T3, Rep nickase domain of wheat dwarf virus in the same assay as above.
T3 sequence (Rep 1-137, printed without the tag): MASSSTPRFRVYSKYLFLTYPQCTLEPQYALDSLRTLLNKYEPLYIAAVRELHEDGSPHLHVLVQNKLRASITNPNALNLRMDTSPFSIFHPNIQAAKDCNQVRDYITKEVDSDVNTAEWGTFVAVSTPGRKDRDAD
Method: as §1

Sequence	uncleaved DNA left (log2)
CACCCTT	-0.259
CTTAGGC	0.0578
TGCTTCT	-0.194
GGAGTAC	0.112
GGGATCG	0.106
TTCTGCT	-0.0641
GATCATT	0.232
CTGCCCT	-0.00647
CGACCGA	0.0242
TGGACAC	0.0742
ACCTGAG	0.114
TAGTGTC	-0.122
ACTTATT	-0.528
TGTGGTG	-0.152
CTGAGAC	-0.0879
GGTTGGA	0.234
CCCCTCT	-0.148
AATCCGG	0.00994
AGGACGG	0.0642
TACGAAT	0.00111

Sequence	uncleaved DNA left (log2)
CTTCATG	0.00439
ACCATCA	0.146
GACCCCT	0.0199
AACATCT	0.0569
GCGGATC	0.148
CTATACA	0.17
ATAAGTG	0.0151
CTTAACA	0.0961
CAAAACC	0.0899
GAAATTA	0.128
GGGGGCT	0.146
CTTAATA	0.185
AAATGGC	0.0095
TTCACAA	0.232
TCCGCGG	-0.104
GATAAAC	-0.0304
TAACCTT	-3.43
TTGCGAG	-0.0951
CTGTGGT	0.0422
GGTGCAG	0.0573
